The whole screen tested about 310,000 compounds, of which about 14,000 (4.5%) showed an effect of 50% or more. The effect is printed as a negative number. Some of the results follow.
molecular target: human ether-à-go-go-related gene (hERG) potassium channel (human, UniProt Q12809); experiment: primary screen, population patch clamp on CHO cells stably expressing hERG
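Note: peak tail current of the secondary pulse compared with the same well before compound.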

Sequence of human ether-à-go-go-related gene (hERG) potassium channel (Q12809 whole entry, looked up): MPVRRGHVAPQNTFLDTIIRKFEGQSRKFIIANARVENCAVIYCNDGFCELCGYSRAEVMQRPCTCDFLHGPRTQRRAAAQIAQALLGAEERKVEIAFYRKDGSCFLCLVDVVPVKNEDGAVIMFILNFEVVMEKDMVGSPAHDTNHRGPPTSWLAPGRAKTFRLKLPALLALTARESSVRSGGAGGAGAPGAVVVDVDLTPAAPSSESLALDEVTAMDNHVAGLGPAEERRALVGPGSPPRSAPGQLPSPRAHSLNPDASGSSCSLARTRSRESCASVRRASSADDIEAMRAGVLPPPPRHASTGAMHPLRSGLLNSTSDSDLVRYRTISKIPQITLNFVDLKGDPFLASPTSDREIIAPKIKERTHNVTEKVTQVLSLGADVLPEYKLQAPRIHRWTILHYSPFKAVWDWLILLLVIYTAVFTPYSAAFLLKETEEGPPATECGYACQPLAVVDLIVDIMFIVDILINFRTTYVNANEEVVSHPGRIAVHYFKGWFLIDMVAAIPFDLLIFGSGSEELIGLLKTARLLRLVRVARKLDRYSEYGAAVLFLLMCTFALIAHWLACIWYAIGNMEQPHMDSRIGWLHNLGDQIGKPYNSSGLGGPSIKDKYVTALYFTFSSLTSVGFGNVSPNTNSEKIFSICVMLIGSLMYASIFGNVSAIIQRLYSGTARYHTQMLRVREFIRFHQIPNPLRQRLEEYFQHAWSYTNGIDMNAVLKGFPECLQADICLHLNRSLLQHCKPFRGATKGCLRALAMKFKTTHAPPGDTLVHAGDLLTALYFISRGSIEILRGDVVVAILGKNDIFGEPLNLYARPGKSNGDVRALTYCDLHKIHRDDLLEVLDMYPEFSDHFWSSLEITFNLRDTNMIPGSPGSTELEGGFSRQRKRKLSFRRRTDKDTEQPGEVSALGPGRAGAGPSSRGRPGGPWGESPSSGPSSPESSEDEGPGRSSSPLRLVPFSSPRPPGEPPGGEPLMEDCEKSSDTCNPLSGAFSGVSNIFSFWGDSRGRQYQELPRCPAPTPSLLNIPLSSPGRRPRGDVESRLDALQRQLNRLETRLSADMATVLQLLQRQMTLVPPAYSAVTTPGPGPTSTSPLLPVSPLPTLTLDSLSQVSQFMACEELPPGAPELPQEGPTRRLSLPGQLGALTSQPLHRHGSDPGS

Row | SMILES | hERG current change (%, negative = inhibition) at 10uM [%]
1 | COc1ccc(C(CC(=O)c2ccccc2)S(=O)(=O)c2ccc(C)cc2)cc1 (centres unmarked) | 12.8
2 | Cc1ccccc1C(=O)NC1CCN(CC(=O)N2CCCCC2C)CC1 (centres unmarked) | 6.93
3 | CCCN(CCC)Cc1c(C(=O)N/N=C/c2ccc(C)o2)nnn1-c1nonc1N | 6.29
4 | O=C(c1ccccc1)C1CN(c2ccccc2)CC1c1ccc(Cl)cc1 (centres unmarked) | 27.1
5 | CCCCn1c(N)c(N(CC(C)C)C(=O)c2cc(=O)[nH]c3ccccc23)c(=O)[nH]c1=O | 3.49
6 | CC(C)CC(=O)NCC(C)NC(=O)CC(C)C (centres unmarked) | 3.51
7 | O=C(NC1CCCc2ccccc21)C1CCC(CNS(=O)(=O)c2cccc3nsnc23)CC1 (centres unmarked) | -4.65
8 | CC(C)(C)c1cc(CCC(=O)NCC2CCCO2)cc(C(C)(C)C)c1O (centres unmarked) | 12.6
9 | O=c1[nH]c2ccc(NC(=S)NCCc3ccccc3)cc2[nH]1 | 5
10 | CCOC(=O)Nc1nc(C)c(C(=O)c2ccc(Cl)cc2)s1 | 22.8
11 | COc1ccc(OC)c(C(c2nnnn2C2CCCC2)N2CCc3ccccc3C2)c1 (centres unmarked) | -11.1
12 | O=C1C2CCCN2C(c2ccccc2F)N1c1ccc(Cl)cc1 (centres unmarked) | 3.77
13 | N#Cc1ccccc1S(=O)(=O)Nc1ccc2c(c1)OCCO2 | 10.5
14 | CC(C)CC(=O)O/N=C1\C(=O)N(c2ccccc2)c2ccccc21 | 28.7
15 | CC(=O)c1c(C)nc(-c2ccc3c(c2)OCO3)n1O | 0.643
16 | Cc1cc(OC(=O)c2cccc([N+](=O)[O-])c2)c(C)cc1CN1CCOCC1 | -3.33
17 | O=C(N/N=C/c1ccc([N+](=O)[O-])o1)C(O)c1ccccc1 (centres unmarked) | -0.231
18 | N#Cc1ccccc1-n1c(N)c(C(=O)N2CCCC2)sc1=S | -7.44
19 | O=c1ccc(S(=O)(=O)N2CCC(Cc3ccccc3)CC2)c[nH]1 | -1.29
20 | CC(=O)Nc1ccc(S(=O)(=O)Nc2nc3ccccc3nc2Nc2ccc(O)cc2)cc1 | -12.2
21 | Cc1ccsc1C(=O)C1CCCN(Cc2cc(F)ccc2-n2cccn2)C1 (centres unmarked) | -82.9
22 | CCOC(=O)c1ccccc1NC(=O)CSc1nnc(C(C)C)n1CC | -9.02

Row | SMILES | hERG current change (%, negative = inhibition) at 10uM [%]
23 | CCCCCN(C(=O)CCC(=O)OCCOc1ccc(OC)cc1)c1c(N)n(CCCC)c(=O)[nH]c1=O | -27.5
24 | O=C(CN1C(=O)C(=O)c2ccccc21)OCN1C(=O)c2ccccc2C1=O | 16.5
25 | Cc1ccc(C)c(S(=O)(=O)N2CCC3(CC2)OCCN3S(=O)(=O)c2cccs2)c1 | 5.64
26 | CC(=O)Nc1ccc(S(=O)(=O)NC2(C(F)(F)F)C(=O)Nc3c2c(=O)n(C)c(=O)n3C)cc1 (centres unmarked) | 3
27 | COc1ccc(OC)c(N(CC(=O)NCCSCc2ccc(C)cc2)S(C)(=O)=O)c1 | -6.1
28 | CC1(C)C(N(O)C(=O)Nc2ccc(Cl)cc2)N(c2ccc(Cl)cc2)C(=O)N1CC(=O)NN (centres unmarked) | -14.6
29 | COC(=O)c1nn(-c2ccc(OC)cc2)c(=O)cc1Oc1cccc(Cl)c1 | -10.9
30 | CNS(=O)(=O)c1cn(CC(=O)NCc2ccc(OC)cc2)cc1S(=O)(=O)NC | -0.325
31 | OCCOCCn1c(C(CO)Nc2nc(-c3cccc(Br)c3)cs2)nc2ccccc21 (centres unmarked) | -12.5
32 | Cc1ccc(C)c(C(=O)CSc2nnnn2C(C)C)c1 | -2.72
33 | CCOC(=O)c1c(C)nc2sc3c(c2c1-c1ccc(OC)cc1)NC(c1ccccc1)NC3=O (centres unmarked) | 7.86
34 | N#CC(C#SN)=C1CCCCC1 | 10.2
35 | CCC(=O)NC(O)C(=O)c1ccc(C)cc1 (centres unmarked) | 8.86
36 | COCCn1c(C)cc(C(=O)CSc2nc3ccccc3c(=O)[nH]2)c1C | -2.4
37 | Cc1ccc(C(=O)Nc2cc(C(C)C)c(O)c(C(C)C)c2)cc1 | -4.12
38 | O=C(O)CC(NC(=O)/C(=C/c1ccccc1)NC(=O)c1ccccc1)c1ccccc1 (centres unmarked) | 18.1
39 | Cc1cc(C)cc(-n2nnc(C(=O)NCc3ccc(Cl)cc3)c2N)c1 | 6.02
40 | CCCNC(=O)NC(=O)COC(=O)CC(NC(N)=O)c1ccc(Cl)cc1 (centres unmarked) | 8.28
41 | CCN1C(=O)C2C(C1=O)N1C(c3ccccc3)C3C(=O)N(CC)C(=O)C3N1C2c1ccccc1 (centres unmarked) | 11.1
42 | COC(=O)c1ccc(NC(=O)CN(C2CCCCC2)S(C)(=O)=O)cc1 | -6.05
43 | CCOc1cc(C2NCc3ccccc3-n3cccc32)ccc1OC.Cl (centres unmarked) | -8.09
44 | NC(=O)C1(N2CCCCC2)CCN(C(=O)c2ccc(C#CC3(O)CCCCC3)cc2)CC1 | -6.21

Row | SMILES | hERG current change (%, negative = inhibition) at 10uM [%]
45 | O=C1c2ccccc2C(=O)N1Cc1nc(-c2ccccn2)no1 | -7.74
46 | O/N=C(\C[n+]1ccccc1)c1ccc(Br)cc1.[Br-] | 9.53
47 | COc1ccc(-c2nn(Cc3ccccc3)cc2C(=O)NC2CC2)cc1OC | -11.9
48 | O=C(N/N=C/c1sc(N2CCOCC2)nc1-c1ccccc1)c1ccccc1O | 2.57
49 | CC[C@H](C)/C=C(C)/C=C/C(=O)Cc1cc(O)c(C)c(O)c1C=O | 2.93
50 | O=C(Cc1ccc(Cl)cc1)N/N=C/c1ccccc1 | -1.13
51 | COc1ccc(C(CNC(=O)C2COc3ccccc3O2)N2CCCC2)cc1 (centres unmarked) | -8.83
52 | CCc1nc2oc3ccccc3c(=O)c2c(=O)n1Cc1ccc(OC)cc1 | -25.4
53 | COc1ccc(OCc2cc(C(=O)NCC3CCOCC3)no2)c(Cl)c1 | -0.305
54 | Cn1c(CNC(=O)Cc2ccc3c(c2)OCO3)nnc1SCc1ccccc1 | 1.39
55 | N#CC(c1ccc(Cl)cc1)c1ncc(C(F)(F)F)cc1Cl (centres unmarked) | -13.5
56 | CS(=O)(=O)N(CC(=O)NC1CC1)C1CCCCC1 | 15.1
57 | Cc1cc(-c2n[nH]c(=S)n2/N=C/c2ccc(Br)s2)n[nH]1 | 13.4
58 | CC(C)Oc1ccc(C(=O)NNC(=O)c2ccccc2C(=O)O)cc1 | 2.81
59 | CNc1c(NS(=O)(=O)c2cc(NC(C)=O)ccc2C)c(=O)oc2ccccc12 | 19.9
60 | O=C(COC(=O)/C=C/c1cccc(F)c1)Nc1ccc2[nH]c(=O)[nH]c2c1 | 9.96
61 | N#CCCN(C(=O)COC(=O)C1CCN(S(=O)(=O)c2cccs2)CC1)c1ccccc1 | -18.1
62 | Cc1ccc(S(=O)(=O)Nc2nnc(CC(C)(C)C)s2)cc1 | -1.12
63 | Cc1ccc(C(=O)N2CCc3ccccc32)cc1NC(=O)c1ccco1 | -68.1
64 | Cc1cc(C)cc(NC(=O)COC(=O)COc2cccc3c2OC(C)(C)C3)c1 | 2.92
65 | Nc1c(C(=O)NCc2ccc3c(c2)OCO3)c2nc3ccccc3nc2n1CCCN1CCOCC1 | 1.46
66 | O=C(Cc1ncn[nH]1)NCCc1ccccc1 | -3.77

Row | SMILES | hERG current change (%, negative = inhibition) at 10uM [%]
67 | CCn1c(SCC(=O)N(C)C2CCCCC2)nc2cc(S(N)(=O)=O)ccc21 | -16.4
68 | O=C(CNc1ccc(Br)cc1)c1ccc(Br)s1 | 23.8
69 | O=C(Cc1cccs1)N1CCC(c2nc3c(nnn3Cc3ccc(F)cc3)c(=O)[nH]2)CC1 | -38.9
70 | Cc1cc(C)cc(NC(=S)NCCCO)c1 | -0.803
71 | COc1cc2c(=O)n(Cc3ccccc3)c(=O)n(CC(=O)NCC3CCCO3)c2cc1OC (centres unmarked) | -13.1
72 | CCn1c(SCC(=O)Nc2ccc(C)cc2)nc(O)cc1=O | 15.8
73 | Cc1ccc(NC(=O)c2cc(S(=O)(=O)N3CCOCC3)c(Br)s2)cc1 | 18
74 | CC(C)(C#N)NC(=O)C(=O)c1c(-c2ccccc2)cc2ccccn12 | 0.544
75 | CC(=O)N1CCN(CC(O)COc2ccc(Br)cc2)CC1.O=C(O)C(=O)O (centres unmarked) | -10.7
76 | O=C(c1cc(-c2ccccn2)nc2ccccc12)N1CCN(c2ncccn2)CC1 | -6.84
77 | O=C(O)c1ccccc1N1C(=O)c2cccc3cccc(c23)C1=O | -1.39
78 | CCCCOc1cc(C)nc(NCc2ccccc2)n1 | 5.5
79 | CCOc1ccc(NC(=S)N(CCN2CCOCC2)Cc2ccc3c(c2)CCCN3CC)cc1 | -7.8
80 | CCC(CC)COC(=O)C1=C(C)NC(=O)NC1c1ccccc1Br (centres unmarked) | 20.7
81 | Cc1nc2nc(Cc3ccccc3)[nH]n2c(=O)c1Cl | 11.8
82 | O=C(Cn1c(=O)c2c(ncn2Cc2ccccc2)n(Cc2ccccc2)c1=O)N1CCc2ccccc21 | -0.223
83 | CC1CN(C(=O)c2cc(F)c(F)cc2Cl)CC(C)O1 (centres unmarked) | 6.44
84 | CC(C)CNC(=O)COC(=O)c1ccccc1OCC(=O)Nc1ccc(Br)cc1 | 7.3
85 | CC(C(=O)Nc1ccc2c(c1)OCO2)n1cnc2c1c(=O)n(C)c(=O)n2C (centres unmarked) | -1.4
86 | COc1cccc(C(=O)Nc2c3c(nn2-c2ccccc2C)CS(=O)C3)c1OC (centres unmarked) | 2.14

Source: article PMC4336329 (PLoS ONE, 2015)
